PubChem BioAssay AID463173 (ICCB-Longwood Screening Facility, Harvard Medical School, 2010)
Among all 52,000 compounds or so, about 1,700 (3.3%) were called active. No stated cut-off is given here; in the data, active means survival mostly below about 52% (no sharp cut-off); inactive means mostly above about 56%. This is one part of the list.

The molecules below were run on Wild type (assay: S. aureus survival, RN4220 and DeltatarO strains – OD600, teichoic acid synthesis inhibitors, primary screen (AID 463173)). Details: S. aureus RN4220 wild type/DeltatarO growth, OD600, 18 h, active compounds read low, screened at 18.75 µg/mL (by protocol).

SMILES	survival
Cn1c(C(=O)Nc2cccc(C(F)(F)F)c2)cc2c(=O)n3ccccc3nc21	inactive: 106%
COc1ccc(OC)c(CNC(=O)C(C)n2c(C)c3cnn(-c4ccccc4)c(=O)c3c2C)c1 (stereo unspecified)	inactive: 112%
CCOc1ccc(NC(=O)C2CCC(CNS(=O)(=O)c3ccc(Br)s3)CC2)cc1 (stereo unspecified)	inactive: 85%
CCOc1cc(/C=C(\C#N)C(=O)NCC2CCCO2)ccc1O (stereo unspecified)	inactive: 75%
Cc1ccccc1OCc1ccc(-c2nc(C#N)c(NCc3cccnc3)o2)o1	inactive: 61%
CC1=C(c2ccc(C)c(C)c2)S(=O)(=O)N=C1N1CCC(C(=O)N2CCC(C)CC2)CC1	inactive: 81%
Cc1cccc(NC(=O)N2CCC3(CC2)Oc2ccccc2C(=O)N3Cc2ccccc2F)c1C	inactive: 79%
O=C(Cc1ccc(F)cc1)Nc1nnc2n1CCS2	inactive: 64%
CCOc1ccc(C(=O)c2oc3ccccc3c2NC(=O)Cc2coc3ccc(CC)cc23)cc1	inactive: 85%
COc1cccc(C(=O)Nc2c(C(=O)N3CCN(c4ccc(F)cc4)CC3)oc3ccccc23)c1	inactive: 77%
CCc1ccc(CNC(=O)c2c(C)oc3ncnc(N4CCOCC4)c23)cc1	inactive: 133%
COc1cc2ccccc2cc1C(=O)Nc1ccc2oc(-c3ccc(F)cc3Cl)nc2c1	inactive: 69%
CCc1cccc(-n2c(=O)c3cccnc3n2CC(=O)Nc2ccc(F)c(C)c2)c1	inactive: 74%
CC(C)c1ccc(Nc2cc(C(=O)NC3CCCCC3)c3ccccc3n2)cc1	inactive: 73%
CCc1ccc2occ(CC(=O)Nc3ccccc3C(F)(F)F)c2c1	inactive: 118%
[O-]/[N+](Cc1ccccc1F)=N\O	inactive: 111%
CCOc1ccccc1-n1nnc(-c2nsc(NC(=O)c3ccc(C)cc3)n2)c1C	inactive: 98%
Cc1cc(C)cc(C(=O)Nc2ccccc2N2CCOCC2)c1	inactive: 115%
CCc1ccccc1OCC(=O)Nc1ccc(S(=O)(=O)Nc2nc(C)cc(C)n2)cc1	inactive: 79%
Cc1nc2cc(C(=O)N3CCN(C)CC3)ccc2n1-c1ccccc1	inactive: 104%
O=C(NCCn1ccc2ccccc21)c1ccc(Cl)cc1	inactive: 83%
Cc1cccc(N2CCN(CCNC(=O)Nc3ccc(Cl)cc3)CC2)c1C	inactive: 87%
COc1ccccc1NC(=O)CSc1nc(-c2ccc(C(C)(C)C)cc2)c(C#N)c(=O)[nH]1	inactive: 57%

SMILES	survival
COc1ccc(NC(=O)Cn2c(=O)n(Cc3nc(-c4ccccc4)no3)c(=O)c3ccccc32)cc1Cl	inactive: 124%
COc1ccc(/C=C/C(=O)Nc2nc3n(n2)C(c2ccc(F)cc2)C=C(c2ccccc2)N3)cc1 (stereo unspecified)	inactive: 56%
CCOC(=O)c1c(-c2ccc(C)cc2)csc1NC(=O)c1cc(=O)c2ccc(C)cc2o1	inactive: 114%
CSc1cccc(Nc2cc(C(=O)NCCCN(C)c3ccccc3)c3ccccc3n2)c1	inactive: 99%
COc1cc(C(=O)n2nc(C)c(Sc3ccc(Cl)cc3)c2C)cc(OC)c1OC	inactive: 47%
COc1ccc(NC(=O)C2CCCN(S(=O)(=O)c3ccc(Br)s3)C2)cc1 (stereo unspecified)	inactive: 77%
CC(=O)N1CCc2cc(S(=O)(=O)NC(C(=O)Nc3ccc(C)cc3C)C(C)C)ccc21 (stereo unspecified)	inactive: 85%
COc1cccc(CNC(=O)Cc2c(C(=O)O)c(C)cn2C)c1	active: 0%
COc1ccc(CC(=O)NCC(c2cccs2)S(=O)(=O)c2ccc(C)cc2)cc1 (stereo unspecified)	inactive: 153%
CCOC(=O)c1c(NC(=O)c2cc(-c3cccc(OC)c3)on2)sc2c1CCCC2	inactive: 70%
CCCCOc1ccccc1CC1C(=O)Nc2ccc(Br)cc21 (stereo unspecified)	active: 3%
O=C(NCc1cccs1)c1ccc(CSc2nc3cccnc3n2Cc2ccccc2F)cc1	inactive: 75%
OCCNc1ncnc2ccc(Br)cc12	inactive: 110%
CCc1ccc(NC(=O)Cn2c(=O)n(Cc3ccco3)c(=O)c3oc4ccccc4c32)cc1	inactive: 87%
CC(C)c1ccc(NC(=O)CN2C(=O)COc3ccc(S(=O)(=O)N4CCCCCC4)cc32)cc1	inactive: 109%
COc1ccccc1N1CCN(c2ncnc3onc(-c4cccc(Cl)c4)c23)CC1	inactive: 74%
O=C(NCc1cccc(Cl)c1)c1ccc2nc(N3CCCCC3)sc2c1	inactive: 80%
CCOC(=O)c1c(C)n(-c2ccccc2)c2ccc(OC(=O)c3cccc(OC)c3OC)cc12	inactive: 57%
Cc1cc(C)c(NC(=O)Cn2cnc3c(oc4ccccc43)c2=O)c(C)c1	inactive: 81%
O=C(NCCN1CCOCC1)c1cnn2c(C(F)F)cc(-c3ccccc3)nc12	inactive: 97%
Cc1oc(-c2ccccc2Cl)nc1CSc1nc2ncccc2[nH]1	inactive: 77%
COc1ccc(S(=O)(=O)Nc2c(C)nc3nc(C)[nH]n3c2=O)cc1	inactive: 82%
CCN(CC)C(=O)c1ccc(Nc2nnc(-c3ccc(C)c(S(=O)(=O)NC)c3)c3ccccc23)cc1	inactive: 79%
